Molecules are shown by their SMILES. Screen size: about 2,200 compounds; fewer than 10 were called active. The list shows a part of the results. The source made no clear call on entries shown without one.

The target of the assay is GTPase KRas (Homo sapiens) (UniProt P01116). Nature of the assay: Covalent labelling of cysteine mutants by fragments, read by mass spectrometry (AID 2202238). Further details: protein at 5 µM with 500 µM competing thiol for 1.5 h. The following applies: KRAS G12D cysteine mutants, disulfide tethering, MALDI-TOF labeling; stronger effect = higher value; H27C mutant labeling; fragment at 500 µM.
UniProt P01116, sequence (P01116 whole entry, looked up, the tested form may be a part): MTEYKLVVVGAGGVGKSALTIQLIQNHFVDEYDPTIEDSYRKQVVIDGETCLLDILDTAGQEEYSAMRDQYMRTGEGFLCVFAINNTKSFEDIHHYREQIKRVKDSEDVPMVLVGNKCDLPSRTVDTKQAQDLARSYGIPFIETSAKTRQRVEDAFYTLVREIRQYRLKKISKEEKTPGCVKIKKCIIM
`O=C(CCS)NCC(=O)N1CCc2sccc2C1` displayed a percent labeling of 37.5%.
In the case of `O=C(CCS)NC1(c2nc(C3CC3)cc(=O)[nH]2)CCCCC1`, the percent labeling turned out to be 37.8%.
As to `O=C(CCS)NC1CC2(C1)NC(=O)NC2=O` (configuration not stated), the percent labeling was 40%.
The molecule `Cc1csc(N(CCc2ccccc2)C(=O)CCS)n1` showed a percent labeling of 31.4%.
`Cn1ccn2ncc(CNC(=O)CCS)c2c1=O` had a percent labeling of 34%.
In turn, `CN(C)Cc1csc(CNC(=O)CCS)n1` showed a percent labeling of 36.6%.
In turn, `Cc1onc(-c2ccccc2)c1NC(=O)CCS` had a percent labeling of 30.1%.
As for `O=C(CCS)N1CCC(N2C(=O)CCCC2=O)CC1`, the percent labeling was 33.8%.
The molecule `O=C(CCc1ccc2cccnc2c1)NCCS` registered a percent labeling of 34.1%.
For `O=C(CCS)N1CC2ON=C(C(F)F)C2C1` (configuration not stated) the value was 36.6%; for `Cn1nc(C(=O)NCCS)c(=O)c2ccccc21`, 48.6%.
`O=C(CCS)NCCc1nccc(C(F)F)n1` displayed a percent labeling of 24.1%.
With `NC(=O)COc1cccc(NC(=O)CCS)c1`, the percent labeling was found to be 44.9%.
To `O=C1CCCc2cc(C(=O)NCCS)ccc2N1` belongs 38.9%; to `CC(O)(C(=O)NCCS)C1CCC1` (configuration not stated), 29.3%.
Molecule `Cc1noc(C)c1CN(Cc1c(C)noc1C)C(=O)CCS` displayed a percent labeling of 45.9%.
Regarding `O=C(CCS)NCc1ncoc1-c1ccccc1`, the percent labeling was 30.4%.
With `O=C(CCS)N1CCn2cccc2C12CCC2`, the percent labeling was determined as 11.6%.
`O=C(CCS)NCc1c(F)cccc1OC(F)F`: the percent labeling was 36.3%.
Turning to `O=C(NCCS)c1cc2c(C(F)(F)F)cc(=O)[nH]c2o1`, the percent labeling was determined as 30.5%.
To `CCOC(=O)c1cnc(N2CCN(C(=O)CCS)CC2)s1` belongs 45.7%; to `CN1C2(CCC2)COCC1(CO)CNC(=O)CCS` (configuration not stated), 36.3%; to `O=C(Cc1ccc(N2CCCC2=O)cc1)NCCS`, 38.5%.
Molecule `Cc1nc(CN2CCN(C(=O)CCS)CC2)oc1C` came in with a percent labeling of 35.2%.
With `O=C(Cc1nc2ccccn2c1Br)NCCS`, the percent labeling was 22.7%.
Turning to `O=C(Cn1cnc(-c2ccccc2)n1)NCCS`, the percent labeling came to 25.4%.
As to `O=C(NCCS)c1csc(C2CCCO2)n1` (configuration not stated), the percent labeling was 32.2%.
For `COc1ccc(Br)c(C(=O)NCCCNC(=O)CCS)c1` the value was 34.6%; for `O=C(CCS)NC1CCN(c2nc(Cl)ncc2F)C1` (configuration not stated), 48.6%.
On to `CCCc1noc(-c2cccc(CNC(=O)CCS)c2)n1`, for which the percent labeling is 32.8%.
To `O=C(NCCS)C1CCCN1c1ncc(C(F)(F)F)cc1Cl` (configuration not stated) belongs 16.6%; to `CC(CC(=O)NCCS)N1CCc2ccccc21` (configuration not stated), 8.3%; to `O=C(CCS)N1CCc2[nH]c3ccc(F)cc3c(=O)c2C1`, 44.9%.
With `O=C(CCS)N1CCN(Cc2nc3ccsc3c(=O)[nH]2)CC1`, the percent labeling was determined as 41.9%.
The molecule `CCn1ncnc1-c1ccc(C(=O)NCCS)cc1` had a percent labeling of 41.8%.
`O=C(CCS)NC1CCc2sc(Cl)cc21` (configuration not stated) showed a percent labeling of 30.8%.
For `O=C(NCCS)C1CCN(S(=O)(=O)c2ccc(F)cc2Cl)CC1`, the percent labeling was 40.1%.
In turn, `Cc1nn(CCO)cc1CNC(=O)CCS` gave a percent labeling of 31%.
As to `O=C(NCCS)C1(C(F)(F)F)CCCCO1` (configuration not stated), the percent labeling was 27.1%.
Consider `O=C(NCCS)c1c[nH]cc1-c1cc(Cl)c2c(c1)OCCO2`, for which the percent labeling is 21.8%.
To `O=C(NCCS)c1ncsc1-c1ccccc1` belongs 35.3%; to `O=C(NCCS)c1cc(-c2ccc3c(c2)OCO3)n[nH]1`, 28.9%.
Regarding `CCn1cc(C(=O)NCCS)c(C(F)(F)F)n1`, the percent labeling was determined as 33.8%.
As for `O=C(NCCS)c1cc(N2CCNC2=O)c(F)cc1F`, the percent labeling was determined as 41.9%.
With `O=C(NCCS)c1cc(Oc2cccc(Br)c2)ccn1`, the percent labeling turned out to be 25.7%.
`CN(C)Cc1cnn2c1CN(C(=O)CCS)CC2` had a percent labeling of 54.3%.
For the molecule `O=C(CCS)NCc1ccc2cnccc2c1`, the percent labeling came out at 38.6%.
To `O=C(CCS)Nc1ccc(-c2cn3ccsc3n2)cc1` belongs 37%; to `O=C(CCS)NC1Cc2[nH]ncc2C(C(F)(F)F)C1` (configuration not stated), 38.4%.
In turn, `Cc1cc(=O)cc(C)n1CCCC(=O)NCCS` came in with a percent labeling of 28.5%.
`Cc1cc(N2CCC(N(C)C(=O)CCS)CC2)nc(C)n1` came in with a percent labeling of 55.1%.
In turn, `Cn1cc(-c2cc(C(F)(F)F)nn2CCCNC(=O)CCS)cn1` showed a percent labeling of 33.3%.
In turn, `O=C(CCS)N1CCC(Cc2cccc(F)c2)CC1` came in with a percent labeling of 43%.
`O=C(CCS)Nc1cccnc1Oc1ccccc1` showed a percent labeling of 46.2%.
In turn, `CN1CCn2nc(NC(=O)CCS)cc2C1` displayed a percent labeling of 37.7%.
For `Cc1oc2ccccc2c1CN(C)C(=O)CCS` the value was 31.3%; for `O=C(NCCS)c1nccnc1C(=O)NCc1ccc(F)cc1`, 31.2%.
To `O=C(CCS)Nc1ccccc1OCC(F)(F)F` belongs 34.8%; to `O=C(NCCS)c1[nH]nc2c1COc1ccccc1-2`, 26.6%; to `O=C(Nc1cn[nH]c1)C1CCN(C(=O)CCS)C1` (configuration not stated), 36.7%.
`CS(=O)(=O)C[C@@H]1C[C@H](F)CN1C(=O)CCS` displayed a percent labeling of 35.3%.
Molecule `Cn1cc(C2(C(=O)NCCS)CCCO2)cn1` (configuration not stated) came in with a percent labeling of 33.6%.
In turn, `CC(NC(=O)NCC(=O)NCCS)c1ccco1` (configuration not stated) registered a percent labeling of 26.1%.
As to `O=C(CN1C(=O)c2ccccc2C(F)(F)C1=O)NCCS`, the percent labeling worked out at 20.4%.
As for `CC(NC(=O)CCS)c1noc(Cc2noc3ccccc23)n1` (configuration not stated), the percent labeling came to 40.6%.
Molecule `Cc1nn(C)c(C)c1[C@@H]1OCC[C@H]1C(=O)NCCS` showed a percent labeling of 26.2%.
Consider `O=C(CCS)NCc1cn2cc(Cl)ccc2n1`, for which the percent labeling was found to be 42.4%.
Molecule `O=C(Cc1c[nH]c2cnccc12)NCCS` had a percent labeling of 51.3%.
As to `Cn1c(=O)[nH]c(=O)c2[nH]c(CCC(=O)NCCS)nc21`, the percent labeling came out at 40.7%.
For `O=C(NCCS)c1nc[nH]c1C(F)(F)F` the value was 34.1%; for `O=C(NCCS)c1cn2c(Br)cnc2s1`, 46.6%; for `O=C(CCS)N(CCn1ccnc1)Cc1ccsc1`, 44.4%.

Values taken from PubChem BioAssay AID2202238 (Ras Initiative Chemistry Research Team, Frederick National …, 2025).
